# Laboratory results taken from PubChem BioAssay (NCATS).
# Inconclusive results, whose numbers are uncertain, are shown with a selection of clear calls. For some assays here: Potencies of inconclusive entries are left out as doubtful fits. Calls of active or inactive are those of the source. Unless noted, calls come from the whole dose curve; as a rule, active = well fitted curve in the direction sought with a large enough effect; inconclusive = small, poorly fitted or top-dose-only effect, or another doubt; inactive = no such curve, though single readings can be large; an effect the other way counts as inactive or inconclusive.
# Key:
# [1] = Cell Viability - Jurkat (AID 426;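 active = dose-dependent loss of cell ATP signal giving a full or clear fitted curve, ranked by lower potency value; inconclusive = weak partial curve or response only at the top dose; inactive = no loss of viability signal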; note: potency is the fitted concentration of half-maximal effect); conditions: qHTS
# Summary of the method: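 Cells of the human T-cell leukemia line Jurkat (E6-1) are seeded at 5000 per well, treated with compound across a concentration range for 40 hours at 37 °C, then lysed with CellTiter-Glo; luminescence reports ATP.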
# [2] = Cell Viability - Hek293 (AID 427;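 active = compounds whose dose-response curve shows a full or clear partial loss of cell viability, called from curve shape rather than a numeric limit; inconclusive = weak partial curves or an effect only at the top dose; inactive = no dose-dependent loss of viability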;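 note: potency is the fitted concentration of half-maximal effect; cells exposed to compound for 40 hours at 37 °C before reading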); conditions: qHTS
# Summary of the method: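 HEK293 cells in complete medium were exposed to compound for 40 hr at 37 °C, then cellular ATP was read by CellTiter-Glo luminescence. Data were normalized to DMSO (basal) and 100 uM tamoxifen (100% inhibition), and AC50 came from Hill fits.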
# [3] = Cell Viability - HUV-EC-C (AID 542); note: potency is the fitted concentration of half-maximal effect; nearly all actives have a fitted effect of over 35% in size
# Summary of the method: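 Cells were seeded at 1000 per well and incubated 5 hr at 37 °C before compound addition. After 40 hr at 37 °C, CellTiter-Glo reagent was added for 20 min and luminescence read. AC50 values came from Hill-equation modelling.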
# [4] = Cell Viability - H-4-II-E (AID 543); note: potency is the fitted concentration of half-maximal effect; nearly all actives have a fitted effect of over 35% in size
# Summary of the method: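 Cells seeded at 1500 per well and rested 5 hr; compounds added; 40 hr incubation at 37 °C; CellTiter-Glo added, 20 min at room temperature; luminescence read. Hill-equation fits gave AC50.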
# [5] = Cell Viability - Renal Proximal Tubule (AID 545); conditions: renal proximal tubule cells viability, primary cells of rat origin; activity change, negative = cytotoxicity: at 91.7 µM (top of the series); note: nearly all actives have a fitted effect of over 40% in size
# Summary of the method: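 In this qHTS format, normal rat kidney-derived proximal tubule cells in complete culture medium receive compound titrations, then sit 40 hours at 37 °C before luciferase-based ATP quantitation; potency is reported as AC50 from concentration-response curves.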
# [6] = Cell Viability - Mesenchymal (AID 546); conditions: mesenchymal cells viability, qHTS; activity change, negative = cytotoxicity: at 91.7 µM (top of the series);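 note: cells exposed to compound for 40 hours before reading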
# Summary of the method: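 CellTiter-Glo luminescence (intracellular ATP, 20 min room temperature) after 40 hr compound exposure at 37 °C of 1000 glomerulus-derived human kidney mesenchymal cells/well; AC50 values obtained by fitting qHTS concentration-response data to the Hill equation.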
# [7] = Cellular Toxicity (caspase-3) Hek293 (AID 664); conditions: HEK293 caspase-3 activation, DMSO = 0%, 100 µM tamoxifen = 100%; at 92.2 µM (top of the series);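 note: cells exposed to compound for 16 h at 37 °C before readout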
# Summary of the method: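 qHTS, HEK293 (human embryonic kidney), 16 h cpd exposure in complete medium. Caspase-3/7 activation = luminescence increase; normalized to DMSO/100 uM tamoxifen; Hill-fit AC50.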
# [8] = Cell Viability - LYMP2-001 (AID 921); note: potency is the fitted concentration of half-maximal effect; nearly all actives have a fitted effect of over 70% in size
# Summary of the method: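 A lymphoblastoid cell line of human origin was treated with library compounds across a concentration series for 24 hours, and viable cell number was estimated from ATP-driven luciferase light output. Hill modeling gave AC50.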
# [9] = MultiTox-Fluor Cytotoxicity Assay - LYMP1-001 - Dead Cells (AID 946); conditions: LYMP1-001 lymphoblastoid cells, dead-cell protease fluorescence; cytotoxicity (dead cells): at 92.2 µM (top of the series);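 note: potency is the fitted concentration of half-maximal effect; cells exposed to compound for 16 h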
# Summary of the method: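 LYMP1-001 lymphoblastoid cells (2500/well) treated 16 h at 37 C. Dead-cell protease cleavage of bis-AAF-R110 read at Ex/Em 485/520. Normalized to DMSO and 15 uM tetraoctylammonium bromide; AC50 from Hill fits.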
# [10] = Cell Viability - LYMP1-003 - Assay at 40 hr (AID 964); note: potency is the fitted concentration of half-maximal effect; nearly all actives have a fitted effect of over 60% in size
# Summary of the method: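 Luminescent ATP signal (CellTiter-Glo) served as the viability read-out after 40 hr compound treatment of human lymphoblastoid LYMP1-003 cells at 37 C. Decreases in ATP were fitted with the Hill equation to give AC50.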
# [11] = Cell Viability - LYMP2-005 (AID 967); note: potency is the fitted concentration of half-maximal effect
# Summary of the method: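 Luciferase-based ATP quantitation served as the viability measure in human lymphoblastoid LYMP2-005 cells exposed to test compounds for 24 h at 37 C in complete culture medium. Potency (AC50) was obtained by fitting concentration-response curves with the Hill equation.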
# [12] = Cell Viability - LYMP2-011 (AID 969); note: potency is the fitted concentration of half-maximal effect; nearly all actives have a fitted effect of over 60% in size
# Summary of the method: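 In this qHTS cytotoxicity format, compounds are tested across concentrations on human lymphoblastoid cells in complete medium for 24 hours at 37 C. Viability is taken as cellular ATP measured by luciferase luminescence.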
# [13] = Cell Viability - LYMP2-013 (AID 970); conditions: LYMP2-013 lymphoblastoid cells viability; activity change, negative = cytotoxic: at 92.2 µM (top of the series); note: potency is the fitted concentration of half-maximal effect; nearly all actives have a fitted effect of over 55% in size
# Summary of the method: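 Cytotoxicity is scored as a concentration-dependent drop in intracellular ATP in human lymphoblastoid cells after 24 hr compound exposure at 37 C. ATP is quantified by luciferase luminescence, and AC50 values come from Hill-equation modeling.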
# [14] = Cell Viability - LYMP2-015 (AID 971); note: potency is the fitted concentration of half-maximal effect; nearly all actives have a fitted effect of over 55% in size
# Summary of the method: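 Cells are seeded at 2500 per well and incubated 5 hr at 37 C. Compounds are added across a concentration series for 24 hr at 37 C. CellTiter-Glo is added, and luminescence is read after 30 min at room temperature.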
# [15] = Cell Viability - LYMP2-017 (AID 972); note: potency is the fitted concentration of half-maximal effect; nearly all actives have a fitted effect of over 55% in size
# Summary of the method: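 Cytotoxicity is scored as a concentration-dependent drop in cellular ATP in a human lymphoblastoid line after 24 hr treatment at 37 C. Values are AC50s from Hill-equation modelling.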
# [16] = Cell Viability - LYMP2-006 (AID 978); note: potency is the fitted concentration of half-maximal effect; nearly all actives have a fitted effect of over 60% in size
# Summary of the method: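 In this cytotoxicity screen, the human lymphoblastoid line grew in complete medium with test compounds for 24 hr at 37 C. Cellular ATP served as the viability signal.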
# [17] = Cell Viability - LYMP2-010 (AID 981); note: potency is the fitted concentration of half-maximal effect; nearly all actives have a fitted effect of over 55% in size
# Summary of the method: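 Steps: seed 2500 LYMP2-010 cells per well; incubate 5 hr at 37 C; add compound; incubate 24 hr at 37 C; add CellTiter-Glo, wait 30 min at room temperature; read luminescence. Concentration-response fitted to Hill equation for AC50.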
# Tags give direction and shape of the fitted curve.
structure (smiles),measurement,setting,value
CO[C@H]1/C=C/O[C@@]2(C)Oc3c(C)c(O)c4c(O)c(c5c(c4c3C2=O)NC2(CCN(CC(C)C)CC2)N=5)=NC(=O)/C(C)=C\C=C\[C@H](C)[C@H](O)[C@@H](C)[C@@H](O)[C@@H](C)[C@H](OC(C)=O)[C@@H]1C,Potency,[1],inconclusive [single point]
same,Potency,[2],inconclusive [single point]
same,Potency,[3],"inconclusive [falling, partial curve, poor fit]"
same,Potency,[4],"inconclusive [falling, partial curve]"
same,"activity change, negative = cytotoxicity",[5],inconclusive: -38%
same,"activity change, negative = cytotoxicity",[6],inconclusive: -33.2%
same,caspase-3 activation,[7],inactive: -2.49%
same,Potency,[8],"inconclusive [cytotoxic, partial curve, poor fit]"
same,Potency,[9],"inconclusive [cytotoxic, partial curve, poor fit]"
same,Potency,[10],"inconclusive [cytotoxic, partial curve]"
same,Potency,[11],"inconclusive [cytotoxic, partial curve, poor fit]"
same,Potency,[12],"inconclusive [cytotoxic, partial curve, poor fit]"
same,Potency,[13],"inconclusive [cytotoxic, partial curve]"
same,Potency,[14],"inconclusive [cytotoxic, partial curve, poor fit]"
same,Potency,[15],"inconclusive [cytotoxic, partial curve]"
same,Potency,[16],"inconclusive [cytotoxic, partial curve, poor fit]"
same,Potency,[17],"inconclusive [cytotoxic, partial curve]"
